Among all 310,000 compounds or so, about 14,000 (4.5%) showed an effect of 50% or more. Effects have a minus sign here. The list shows a part of the results.
The molecules below were run against human ether-à-go-go-related gene (hERG) potassium channel (human, UniProt Q12809) (assay: primary screen, population patch clamp on CHO cells stably expressing hERG).
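Note: peak tail current of the secondary pulse compared with the same well before compound.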

Sequence of human ether-à-go-go-related gene (hERG) potassium channel (Q12809 whole entry, looked up): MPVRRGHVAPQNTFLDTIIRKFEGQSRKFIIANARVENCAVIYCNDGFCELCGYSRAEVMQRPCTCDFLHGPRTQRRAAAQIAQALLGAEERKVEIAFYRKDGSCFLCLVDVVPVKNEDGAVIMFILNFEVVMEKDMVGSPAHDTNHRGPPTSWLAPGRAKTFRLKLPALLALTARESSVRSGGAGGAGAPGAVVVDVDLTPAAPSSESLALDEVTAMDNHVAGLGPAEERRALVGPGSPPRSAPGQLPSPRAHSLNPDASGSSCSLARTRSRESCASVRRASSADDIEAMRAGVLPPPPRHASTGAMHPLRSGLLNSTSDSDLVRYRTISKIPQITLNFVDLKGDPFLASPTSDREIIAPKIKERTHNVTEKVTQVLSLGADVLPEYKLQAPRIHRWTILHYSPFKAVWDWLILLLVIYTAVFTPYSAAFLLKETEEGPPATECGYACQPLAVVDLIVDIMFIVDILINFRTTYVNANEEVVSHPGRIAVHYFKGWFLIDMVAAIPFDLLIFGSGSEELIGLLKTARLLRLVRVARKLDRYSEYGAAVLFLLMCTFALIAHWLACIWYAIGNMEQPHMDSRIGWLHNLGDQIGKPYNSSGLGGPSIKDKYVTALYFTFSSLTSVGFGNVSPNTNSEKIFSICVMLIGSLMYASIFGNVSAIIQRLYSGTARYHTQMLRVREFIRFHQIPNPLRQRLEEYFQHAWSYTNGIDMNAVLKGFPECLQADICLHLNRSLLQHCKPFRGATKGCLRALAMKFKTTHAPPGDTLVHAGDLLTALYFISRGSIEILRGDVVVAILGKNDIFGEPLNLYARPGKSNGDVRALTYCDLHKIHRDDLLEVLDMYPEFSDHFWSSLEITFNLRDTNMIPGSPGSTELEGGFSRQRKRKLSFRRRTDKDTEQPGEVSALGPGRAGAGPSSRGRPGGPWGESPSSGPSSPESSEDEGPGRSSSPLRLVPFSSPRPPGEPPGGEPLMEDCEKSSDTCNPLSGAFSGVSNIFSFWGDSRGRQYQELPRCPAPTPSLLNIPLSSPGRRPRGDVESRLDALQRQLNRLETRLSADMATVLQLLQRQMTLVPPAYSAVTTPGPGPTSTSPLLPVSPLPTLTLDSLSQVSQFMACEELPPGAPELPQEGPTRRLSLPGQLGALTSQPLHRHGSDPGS

Row | SMILES | hERG current change (%, negative = inhibition) at 10uM
1 | N=c1c2c(-c3ccccc3)c(-c3ccccc3)oc2ncn1CCN1CCOCC1 | -70.8%
2 | O=C(CSc1nc2c(cnn2-c2ccccc2)c(=O)[nH]1)c1ccc(Cl)cc1 | 4.95%
3 | O=C(CSc1nc(=O)n2ccccc2n1)NCc1ccccc1 | -1.77%
4 | CN(C)S(=O)(=O)c1ccc(C(=O)Oc2coc(CSc3ncccn3)cc2=O)cc1 | -28.6%
5 | O=C(O)c1cccc(NC(=O)c2cc(S(=O)(=O)N3CCOCC3)cs2)c1 | 19.6%
6 | CS(=O)(=O)Nc1ccc2c(c1)OCC(=O)N2Cc1ccccc1 | -25.5%
7 | Cc1ccc(NC(C#N)c2ccccc2OCc2ccccc2)cc1 (centres unmarked) | -1.76%
8 | O=C(O)CCCN=CC1=C(O)C(C(=O)c2ccccc2)CCC1=O (centres unmarked) | 20.5%
9 | COc1ccc(N=Nc2c(-c3ccc(OC)cc3)[nH]oc2=O)cc1 | 12.5%
10 | COCCN1C(=O)c2ccccc2C(C(=O)N2CCN(c3ccccc3)CC2)C1c1ccc(F)cc1 (centres unmarked) | -9.73%
11 | CC(=O)Cc1nsc(NC(=O)c2ccc(COc3ccccc3C)o2)n1 | 0.496%
12 | CC(C)(C)NC(=O)CN(Cc1cccs1)C(=O)CNS(=O)(=O)c1ccccc1 | 24.2%
13 | CC(C)(C)NC(=O)CSCc1ccc(Br)cc1 | -4.63%
14 | COc1ccc(S(=O)(=O)N2CCCCC2)cc1NC(=O)c1cncc(Br)c1 | 5.32%
15 | COc1ccc(-c2cc(C(=O)Nc3c(C)nn(Cc4ccccc4Cl)c3C)no2)cc1 | 15%
16 | O=C(COC(=O)C1CCC(=O)N1)Nc1ccc(Br)cc1 (centres unmarked) | 12%
17 | CC(=O)c1c(NC(=O)c2ccccc2)[nH]c(-c2ccccc2)nc1=S | 2.15%
18 | Cc1cc(C(=O)NC(=S)Nc2ccccc2N2CCOCC2)ccc1[N+](=O)[O-] | 12.9%
19 | CCCN(C(=O)c1cc2c(s1)CCC2)c1c(N)n(Cc2ccccc2)c(=O)[nH]c1=O | -1.61%
20 | Cc1ccc(OCc2cc(C(=O)N(C)Cc3cnn(-c4ccccc4C)c3)no2)cn1 | -21.1%
21 | COC(=O)c1ccc2c(=O)n(CCN3CCOCC3)c(SCC(=O)Nc3ccc(C)cc3)nc2c1 | -69.5%
22 | Cn1c(CNC(=O)CCNC(=O)c2ccc(Br)cc2)cc(=O)n(C)c1=O | 4.04%

Row | SMILES | hERG current change (%, negative = inhibition) at 10uM
23 | COc1cccc2c(=O)c(C(=O)NCc3cccs3)c[nH]c12 | 22.1%
24 | O=C(CO/N=C/c1ccc(OC(F)F)cc1)NCc1cccs1 | -62.6%
25 | Cc1cccc(C)c1NC(=O)CN(C)C(=O)C(c1ccccc1)c1ccccc1 | -36.9%
26 | CCn1c(SC2CCOC2=O)nnc1-c1ccc(Cl)cc1 (centres unmarked) | 9.29%
27 | COc1cc2c(=O)n(CCC(=O)NCC3CCCO3)c(=O)n(CC(=O)Nc3ccc(C)cc3C)c2cc1OC (centres unmarked) | 15.8%
28 | O=C(CSCc1ccccc1Cl)NN1C(=O)c2ccccc2C1=O | -20.8%
29 | Cc1ccc(CNC(=S)Nc2cc(C(=O)O)ccc2C)cc1 | 25.9%
30 | O=C(Nc1ccccc1)c1ccc(Nc2c([N+](=O)[O-])cc([N+](=O)[O-])c3ccccc23)cc1 | 6.49%
31 | O=C(c1cccc(COCC(F)(F)C(F)F)c1)N1CCN(c2ccccc2)CC1 | -42.8%
32 | COc1ccc(CNc2nc3ccccc3s2)cc1OC | 3.16%
33 | Cc1ccc(-c2nc(N)sc2-c2ccccc2)cc1C | 11.6%
34 | COc1ccc(COc2ccccc2C(=O)NCc2ccccc2)cc1F | 26.4%
35 | Cc1sc2ncn(CC(=O)NCc3ccco3)c(=O)c2c1-c1ccccc1 | -11.8%
36 | CC1C(=O)N2CCCc3cc(S(=O)(=O)NCc4ccc(F)cc4)cc1c32 (centres unmarked) | -23.4%
37 | COc1ccc(CC(NC(C)=O)C(=O)NC2CCN(S(=O)(=O)c3ccc(NC(C)=O)cc3)CC2)cc1 (centres unmarked) | -12%
38 | Nn1c(Cc2ccccc2)nc2ccccc2c1=O | 4.99%
39 | Cc1ccc2c(c1)C(c1ccccc1)=NCC(=O)N2 | -12.8%
40 | CC(C)Cn1c(-c2ccc(Br)o2)n[nH]c1=S | 8.25%
41 | Cn1c(=O)c(S(=O)(=O)C(C)(C)C)c(O)c2ccccc21 | 9.35%
42 | CSc1ncccc1C(=O)Nc1nnc(C2CC2)s1 | -4.22%
43 | O=S(=O)(Nc1cccc2nsnc12)c1ccccc1 | -4.22%
44 | Cc1ccc(N/C=C/C(=O)c2ccco2)c(O)c1 | 8.63%
